Molecules are shown by their SMILES. In all, about 310,000 compounds went through this assay and about 14,000 (4.5%) showed an effect of 50% or more. Effects have a minus sign here. The list shows a part of the results.
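Also: peak tail current of the secondary pulse compared with the same well before compound.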

In this assay the target is human ether-à-go-go-related gene (hERG) potassium channel (human, UniProt Q12809). The experiment in a line: primary screen, population patch clamp on CHO cells stably expressing hERG.
Sequence of human ether-à-go-go-related gene (hERG) potassium channel (Q12809 whole entry, looked up): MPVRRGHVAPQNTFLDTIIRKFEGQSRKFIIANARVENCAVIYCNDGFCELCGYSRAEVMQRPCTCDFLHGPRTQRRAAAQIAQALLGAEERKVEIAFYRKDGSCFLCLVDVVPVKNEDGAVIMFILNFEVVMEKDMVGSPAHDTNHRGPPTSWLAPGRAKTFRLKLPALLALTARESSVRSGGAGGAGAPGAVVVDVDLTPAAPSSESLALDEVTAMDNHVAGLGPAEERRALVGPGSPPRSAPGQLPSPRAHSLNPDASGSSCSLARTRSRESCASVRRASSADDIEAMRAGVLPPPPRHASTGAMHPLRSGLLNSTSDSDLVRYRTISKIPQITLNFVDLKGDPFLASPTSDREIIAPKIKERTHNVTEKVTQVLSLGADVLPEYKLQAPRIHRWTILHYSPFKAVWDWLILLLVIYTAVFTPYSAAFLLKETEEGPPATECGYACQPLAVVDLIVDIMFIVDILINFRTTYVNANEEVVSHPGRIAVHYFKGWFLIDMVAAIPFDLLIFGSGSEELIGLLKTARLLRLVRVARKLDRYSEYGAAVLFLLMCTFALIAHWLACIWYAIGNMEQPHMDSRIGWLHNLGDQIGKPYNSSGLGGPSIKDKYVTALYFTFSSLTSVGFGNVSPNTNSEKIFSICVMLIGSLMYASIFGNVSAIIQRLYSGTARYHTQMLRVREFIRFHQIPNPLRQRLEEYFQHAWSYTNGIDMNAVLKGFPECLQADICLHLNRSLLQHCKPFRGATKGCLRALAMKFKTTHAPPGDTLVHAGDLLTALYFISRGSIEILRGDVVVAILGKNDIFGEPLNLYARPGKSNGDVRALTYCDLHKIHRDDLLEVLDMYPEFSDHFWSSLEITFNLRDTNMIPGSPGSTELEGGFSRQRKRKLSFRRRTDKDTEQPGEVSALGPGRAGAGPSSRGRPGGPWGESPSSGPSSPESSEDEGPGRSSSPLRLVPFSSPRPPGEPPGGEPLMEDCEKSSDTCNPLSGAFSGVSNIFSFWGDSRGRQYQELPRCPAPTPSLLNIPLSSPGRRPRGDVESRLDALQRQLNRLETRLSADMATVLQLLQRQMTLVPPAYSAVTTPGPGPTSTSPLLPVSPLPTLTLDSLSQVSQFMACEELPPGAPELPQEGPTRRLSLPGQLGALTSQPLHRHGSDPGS
Turning to `COC(=O)c1ccccc1N=C(SC)N(C)C`, the “hERG current change (%, negative = inhibition) at 10uM” value amounted to 9.6%. On to `COC(=O)c1cc(OC)c(OC)cc1NC(=S)NC(=O)c1ccco1`, for which the “hERG current change (%, negative = inhibition) at 10uM” value is 10.8%. With `CCC(=O)Nc1cc(-c2nnc(OC)c3ccccc23)ccc1N1CCOCC1`, the “hERG current change (%, negative = inhibition) at 10uM” value is recorded as -5.46%. On to `O=S(=O)(Cc1ccc(Cl)cc1)Nc1ccc2c(c1)OCO2`, for which the “hERG current change (%, negative = inhibition) at 10uM” value is given as -6.54%. On to `COc1ccc(CN2CCN(Cc3ccc(C)cc3)CC2)c(OC)c1.O=C(O)C(=O)O`, for which the “hERG current change (%, negative = inhibition) at 10uM” value is given as -70.3%. For the molecule `CN(C)S(=O)(=O)N1CCN(CC(=O)Nc2ccc(F)cc2)CC1`, the “hERG current change (%, negative = inhibition) at 10uM” value was -69.7%. Consider `CCOc1cc(C2C(C#N)=C(N)Oc3cc(N)ccc32)ccc1O` (centres unmarked), for which the “hERG current change (%, negative = inhibition) at 10uM” value is listed as 4.76%. To `COC(=O)c1nn(Cc2ccccc2)c(=O)c2ccccc12` belongs -3.51%; to `COc1ccc(NC(=O)COc2ccc3c(C)cc(=O)oc3c2)cc1S(=O)(=O)N1CCCCC1`, -1.06%.

Regarding `CN(C(=O)c1ccccc1OC1CCN(S(C)(=O)=O)CC1)C1CCOC1` (centres unmarked), the “hERG current change (%, negative = inhibition) at 10uM” value turned out to be 11.7%. Turning to `COCCN1C2=C(COC(C)(C)C2)C(=S)NC1c1ccccc1` (centres unmarked), the “hERG current change (%, negative = inhibition) at 10uM” value is 9.13%. Turning to `CN(C)S(=O)(=O)N(CC(=O)N1CCC(Cc2ccccc2)CC1)c1ccccc1`, the “hERG current change (%, negative = inhibition) at 10uM” value was -0.114%. `COC(=O)c1ccccc1NC(=O)c1ccc(F)cc1`: the “hERG current change (%, negative = inhibition) at 10uM” value is given as 4.96%. Consider `O=C(N/N=C/c1cc([N+](=O)[O-])ccc1O)c1cccc2cc[nH]c12`, for which the “hERG current change (%, negative = inhibition) at 10uM” value was -5.42%. As to `CCCN=CC1=C(O)CC(c2ccccc2)CC1=O` (centres unmarked), the “hERG current change (%, negative = inhibition) at 10uM” value is -13.8%. Turning to `OCCC1CN(Cc2cccc3c2OCO3)CCN1C1CCCC1` (centres unmarked), the “hERG current change (%, negative = inhibition) at 10uM” value is -20.4%. On to `O=C(O)c1cccc(N/N=C/c2sc(N3CCOCC3)nc2-c2ccccc2)c1`, for which the “hERG current change (%, negative = inhibition) at 10uM” value is reported as -13.4%.

With `CCS(=O)(=O)n1nc(-c2ccco2)nc1N`, the “hERG current change (%, negative = inhibition) at 10uM” value was -21.2%. In the case of `O=C(NC(Cc1ccccc1)C(=O)OCC(=O)N1CCc2ccccc21)c1ccco1` (centres unmarked), the “hERG current change (%, negative = inhibition) at 10uM” value was determined as 0.762%. To `Fc1cccc(C2NCCc3[nH]cnc32)c1` (centres unmarked) belongs 23.5%. As for `O=[N+]([O-])c1cccc(/C=N/n2c(COc3ccccc3)n[nH]c2=S)c1`, the “hERG current change (%, negative = inhibition) at 10uM” value is listed as -20.1%. With `Cc1ccc(NC(=O)c2ccc(OCC3CCCO3)cc2)nc1` (centres unmarked), the “hERG current change (%, negative = inhibition) at 10uM” value is reported as -2.69%. For the molecule `Oc1ccc(Br)cc1/C=N/n1cnc2ccccc21`, the “hERG current change (%, negative = inhibition) at 10uM” value is listed as 13.1%. Turning to `Cc1cc(C)cc(N(CCC(=O)Nc2nnc(C)s2)S(=O)(=O)c2ccc(Cl)cc2)c1`, the “hERG current change (%, negative = inhibition) at 10uM” value is given as 17.4%. `CC(=O)N1CCc2cc(S(=O)(=O)CCC(=O)Nc3cc(C)cc(C)c3)ccc21`: the “hERG current change (%, negative = inhibition) at 10uM” value is reported as -1.42%. Take `CCN(CC)c1ccc(N2C(=NC(=O)C3CCCO3)SC3CS(=O)(=O)CC32)cc1` (centres unmarked): the “hERG current change (%, negative = inhibition) at 10uM” value is 3.6%. As for `CC(=O)c1ccc(N2CCN(S(=O)(=O)c3ccc(-c4cc(C)no4)s3)CC2)cc1`, the “hERG current change (%, negative = inhibition) at 10uM” value is on record as -1.08%. To `O=C(CCC1CCCN(Cc2ccc3c(c2)CCO3)C1)NCc1ccc(F)c(F)c1` (centres unmarked) belongs -63.7%. To `CN1CCN(Cc2cccc(Oc3ccc(Cl)cc3)c2)CC1` belongs 1.98%. Consider `CCOc1ccccc1NC(=O)c1cc(S(=O)(=O)N2CCN(CC)CC2)ccc1Cl`, for which the “hERG current change (%, negative = inhibition) at 10uM” value was -27.6%. As to `Cc1ccc2c(c1)C(O)(CC(=O)c1cccc(-n3cccc3)c1)C(=O)N2` (centres unmarked), the “hERG current change (%, negative = inhibition) at 10uM” value was 16.8%. Regarding `CCC(=Nc1ccccc1NC(C)=O)c1c(O)n(C)c(=O)n(C)c1=O`, the “hERG current change (%, negative = inhibition) at 10uM” value was -5.43%. For `CC1(C)NC(=O)[C@H]2CCCN21`, the “hERG current change (%, negative = inhibition) at 10uM” value was 12.9%.

Regarding `CCc1nnc(NC(=O)CSc2ncnc3c2oc2ccccc23)s1`, the “hERG current change (%, negative = inhibition) at 10uM” value is 8.42%.

On to `Cc1ccc(S(=O)(=O)N2CCN(C(=O)CC(C)n3nc(C)c(Cl)c3C)CC2)cc1C` (centres unmarked), for which the “hERG current change (%, negative = inhibition) at 10uM” value is given as -0.217%.

In the case of `O=C(NCCCN1CCCC1=O)c1ccc(NS(=O)(=O)c2ccccc2)cc1`, the “hERG current change (%, negative = inhibition) at 10uM” value was found to be 0.22%.

Consider `Cn1nc(-c2ccccc2F)c2cc(C(=O)Nc3ccc4c(c3)OCCO4)sc21`, for which the “hERG current change (%, negative = inhibition) at 10uM” value was 14.8%. As for `Cc1cccc(N2C(N)=NC(N)=NC23CCCCC3)c1.Cl`, the “hERG current change (%, negative = inhibition) at 10uM” value came to 2.94%. With `CCCNC(=O)CCc1c(C)nc2nc(C)nn2c1C`, the “hERG current change (%, negative = inhibition) at 10uM” value came out at 9.45%. As for `COc1ccc(NC(=O)c2cc(-c3ccc4c(c3)OCO4)on2)cc1OC`, the “hERG current change (%, negative = inhibition) at 10uM” value is on record as -26.6%. On to `COC(=O)c1ccc(/C=N/n2c(C)nc3ccccc3c2=O)cc1`, for which the “hERG current change (%, negative = inhibition) at 10uM” value was 12.3%. Next, `CC(C)C[C@H](N)c1nnc(S(=O)(=O)Cc2ccc(F)cc2)o1.Cl`: 9.97%; `O=C(Cc1cccc(C(F)(F)F)c1)NCc1ccc(Cl)cc1`: -18.3%. As to `CCOc1ccc(-c2cc3nc(C4CCN(C(=O)OC(C)(C)C)CC4)c(C(=O)O)cn3n2)cc1`, the “hERG current change (%, negative = inhibition) at 10uM” value turned out to be 6.05%.

The values above are taken from paper PMC4336329 (PLoS ONE, 2015).
